Results reported in the supplement of paper PMC4967469.
The IC50 comes from the fitted curve, where viability falls to half of the control; a fit beyond the top or the lowest dose is shown as a bound at that dose. For AUC the same curve is integrated over the 256-fold range of doses and scaled to a fraction; it is 1 without any effect and falls as sensitivity rises. Where the top dose is marked as inferred, it is not printed in the source and was worked back from the curve model.

Assays:
Assay in all cases: Viability of human cancer cell lines after 72 h of drug (GDSC screen)
[1] = compound: CCN1CCC(n2cc(CNc3cc(Cl)c4ncc(C#N)c(Nc5ccc(F)c(Cl)c5)c4c3)nn2)CC1 [KIN001-266]; details: top dose 20 µM; top dose inferred
Procedure: (§1)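 Human cancer cell lines in 384-well plates, medium with 10% serum, drug for 72 h over a 256-fold dose range (nine 2-fold or five 4-fold steps up to the top dose). Adherent lines were fixed and stained with the nucleic acid dye Syto60, suspension lines read with resazurin; signal relative to control wells, capped at 0 and 100%. One two-parameter sigmoid per drug and line, fitted in a mixed model over all curves with the slope shared within a line.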

[2] = compound: COc1ccc(-c2cc3nccn3c(Nc3ncccc3C(N)=O)n2)cc1OC [BAY 61-3606]; details: top dose 8 µM; top dose inferred
Procedure: as §1

[3] = compound: C=CC(=O)N1CCc2ccc(-n3c(=O)ccc4cnc5ccc(-c6cnn(C)c6)cc5c43)cc21 [QL-XII-47]; details: top dose 10.24 µM; top dose inferred
Procedure: as §1

[4] = compound: O=C1/C(=C/c2cccs2)CC/C1=C\c1cccs1 [CCT007093]; details: top dose 6.6 µM; top dose inferred
Procedure: as §1

Cell Line | AUC [1] | IC50 [1] [µM] | AUC [2] | IC50 [2] [µM] | AUC [3] | IC50 [3] [µM] | AUC [4] | IC50 [4] [µM]
G-402 (soft tissue, adherent) | 0.867 | > 20 | 0.77 | 4.08 | 0.705 | 2.96 | 0.947 | > 6.6
G-MEL (melanoma, adherent) | 0.853 | 15.4 | 0.672 | 1.5 | 0.46 | 0.498 | 0.966 | > 6.6
GAMG (glioma, adherent) | 0.852 | 16.6 | 0.951 | > 8 | 0.453 | 0.474 | 0.936 | > 6.6
GB-1 (glioma, adherent) | 0.845 | 18.5 | 0.738 | 2.75 | 0.715 | 2.94 | 0.966 | > 6.6
GCIY (stomach, adherent) | 0.933 | > 20 | 0.983 | > 8 | 0.972 | > 10.2 | 0.931 | > 6.6
GCT (soft tissue, adherent) | 0.983 | > 20 | 0.535 | 0.617 | 0.747 | 3.08 | 0.988 | > 6.6
GDM-1 (acute myeloid leukaemia, suspension) | 0.871 | 17.4 | 0.553 | 0.694 | 0.439 | 0.441 | 0.987 | > 6.6
GI-1 (glioma, adherent) | 0.87 | 17.3 | 0.846 | 5.47 | 0.684 | 2.04 | 0.982 | > 6.6
GI-ME-N (neuroblastoma, adherent) | 0.824 | 18.2 | 0.882 | > 8 | 0.584 | 1.18 | 0.931 | > 6.6
GMS-10 (glioma, adherent) | 0.986 | > 20 | 0.965 | > 8 | 0.954 | > 10.2 | 0.976 | > 6.6
GOTO (neuroblastoma, adherent) | 0.81 | 12.3 | 0.787 | 4.02 | 0.818 | 6.82 | 0.974 | > 6.6
GP5d (large intestine, adherent) | 0.883 | 17.5 | 0.91 | > 8 | 0.875 | 8.3 | 0.991 | > 6.6
GRANTA-519 (B-cell lymphoma, suspension) | 0.885 | 18 | 0.949 | > 8 | 0.629 | 1.4 | 0.991 | > 6.6
GT3TKB (stomach, adherent) | 0.967 | > 20 | 0.958 | > 8 | 0.746 | 2.92 | 0.987 | > 6.6
H9 (lymphoid neoplasm, suspension) | 0.891 | 16.1 | 0.908 | 7.63 | 0.626 | 1.33 | 0.992 | > 6.6
H513 (mesothelioma, semi-adherent) | 0.976 | > 20 | 0.984 | > 8 | 0.903 | > 10.2 | 0.985 | > 6.6
H2369 (mesothelioma, adherent) | 0.944 | > 20 | 0.339 | 0.176 | 0.978 | > 10.2 | 0.986 | > 6.6
H2373 (mesothelioma, adherent) | 0.947 | > 20 | 0.877 | > 8 | 0.981 | > 10.2 | 0.983 | > 6.6
H2461 (mesothelioma, adherent) | 0.981 | > 20 | 0.967 | > 8 | 0.86 | > 10.2 | 0.983 | > 6.6
H2591 (mesothelioma, adherent) | 0.918 | > 20 | 0.911 | > 8 | 0.892 | > 10.2 | 0.972 | > 6.6
H2595 (mesothelioma, adherent) | 0.97 | > 20 | 0.898 | > 8 | 0.839 | > 10.2 | 0.98 | > 6.6

Cell Line | AUC [1] | IC50 [1] [µM] | AUC [2] | IC50 [2] [µM] | AUC [3] | IC50 [3] [µM] | AUC [4] | IC50 [4] [µM]
H2722 (mesothelioma, adherent) | 0.862 | > 20 | 0.727 | 2.54 | 0.819 | 7.3 | 0.975 | > 6.6
H2731 (mesothelioma, adherent) | 0.615 | 2.71 | 0.983 | > 8 | 0.967 | > 10.2 | 0.969 | > 6.6
H2795 (mesothelioma, adherent) | 0.877 | 19.5 | 0.916 | > 8 | 0.567 | 0.973 | 0.986 | > 6.6
H2803 (mesothelioma, adherent) | 0.918 | > 20 | 0.815 | 5.33 | 0.879 | > 10.2 | 0.979 | > 6.6
H2804 (mesothelioma, adherent) | 0.966 | > 20 | 0.825 | 5.46 | 0.857 | 9.66 | 0.97 | > 6.6
H2818 (mesothelioma, adherent) | 0.987 | > 20 | 0.976 | > 8 | 0.951 | > 10.2 | 0.987 | > 6.6
H2869 (mesothelioma, adherent) | 0.983 | > 20 | 0.879 | > 8 | 0.745 | 3.91 | 0.973 | > 6.6
H3118 (head and neck, adherent) | 0.844 | 16.2 | 0.826 | 5.44 | 0.712 | 2.71 | 0.951 | > 6.6
H3255 (lung adenocarcinoma, adherent) | 0.729 | 6.46 | 0.85 | 7.97 | 0.82 | 7.42 | 0.938 | > 6.6
H-EMC-SS (chondrosarcoma, adherent) | 0.91 | > 20 | 0.77 | 3.97 | 0.766 | 4.89 | 0.979 | > 6.6
HA7-RCC (kidney, adherent) | 0.824 | 13.6 | 0.93 | > 8 | 0.731 | 3.15 | 0.984 | > 6.6
HAL-01 (lymphoblastic leukaemia, suspension) | 0.846 | 12.2 | 0.836 | 4.45 | 0.511 | 0.685 | 0.98 | > 6.6
HARA (lung squamous cell carcinoma, adherent) | 0.883 | > 20 | 0.889 | > 8 | 0.594 | 1.21 | 0.964 | > 6.6
HC-1 (hairy cell leukaemia, suspension) | 0.831 | 12 | 0.577 | 0.803 | 0.625 | 1.4 | 0.987 | > 6.6
HCC38 (breast, adherent) | 0.849 | 16.8 | 0.968 | > 8 | 0.85 | 8.75 | 0.983 | > 6.6
HCC70 (breast, adherent) | 0.762 | 7.01 | 0.744 | 2.46 | 0.871 | 9.31 | 0.976 | > 6.6
HCC202 (breast, adherent) | 0.867 | > 20 | 0.818 | 7.08 | 0.4 | 0.304 | 0.98 | > 6.6
HCC1143 (breast, adherent) | 0.872 | > 20 | 0.952 | > 8 | 0.862 | > 10.2 | 0.979 | > 6.6
HCC1187 (breast, suspension) | 0.965 | > 20 | 0.907 | > 8 | 0.843 | 6.73 | 0.934 | > 6.6
HCC1395 (breast, adherent) | 0.86 | > 20 | 0.83 | 6.45 | 0.974 | > 10.2 | 0.981 | > 6.6
HCC1419 (breast, adherent) | 0.977 | > 20 | 0.968 | > 8 | 0.844 | > 10.2 | 0.964 | > 6.6

Cell Line | AUC [1] | IC50 [1] [µM] | AUC [2] | IC50 [2] [µM] | AUC [3] | IC50 [3] [µM] | AUC [4] | IC50 [4] [µM]
HCC1428 (breast, adherent) | 0.891 | > 20 | 0.988 | > 8 | 0.893 | > 10.2 | 0.98 | > 6.6
HCC1500 (breast, adherent) | 0.878 | > 20 | 0.968 | > 8 | 0.67 | 1.94 | 0.974 | > 6.6
HCC1569 (breast, adherent) | 0.958 | > 20 | 0.825 | 7.11 | 0.714 | 3.21 | 0.932 | > 6.6
HCC1806 (breast, adherent) | 0.849 | 13.2 | 0.918 | > 8 | 0.922 | > 10.2 | 0.989 | > 6.6
HCC1937 (breast, adherent) | 0.824 | 14.3 | 0.955 | > 8 | 0.664 | 1.98 | 0.981 | > 6.6
HCC1954 (breast, adherent) | 0.944 | > 20 | 0.952 | > 8 | 0.366 | 0.257 | 0.975 | > 6.6
HCC2157 (breast, suspension) | 0.973 | > 20 | 0.883 | > 8 | 0.923 | > 10.2 | 0.986 | > 6.6
HCC2218 (breast, suspension) | 0.863 | > 20 | 0.882 | > 8 | 0.817 | 7.7 | 0.978 | > 6.6
HCC2998 (large intestine, adherent) | 0.883 | > 20 | 0.833 | 4.96 | 0.921 | > 10.2 | 0.978 | > 6.6
HCC-15 (lung squamous cell carcinoma, adherent) | 0.913 | > 20 | 0.976 | > 8 | 0.802 | 6.78 | 0.965 | > 6.6
HCC-44 (lung adenocarcinoma, adherent) | 0.852 | 14.9 | 0.705 | 1.87 | 0.494 | 0.618 | 0.986 | > 6.6
HCC-56 (large intestine, adherent) | 0.877 | > 20 | 0.834 | 5.41 | 0.878 | > 10.2 | 0.987 | > 6.6
HCC-827 (lung adenocarcinoma, adherent) | 0.822 | 14 | 0.929 | > 8 | 0.919 | > 10.2 | 0.981 | > 6.6
HCE-4 (oesophagus, adherent) | 0.99 | > 20 | 0.836 | 4.26 | 0.82 | 4.82 | 0.991 | > 6.6
HCT-15 (large intestine, adherent) | 0.884 | > 20 | 0.801 | 4.18 | 0.774 | 4.26 | 0.949 | > 6.6
HCT-116 (large intestine, adherent) | 0.801 | 9.17 | 0.806 | 3.83 | 0.438 | 0.438 | 0.986 | > 6.6
HD-MY-Z (Hodgkin lymphoma, adherent) | 0.826 | 12.2 | 0.877 | > 8 | 0.437 | 0.429 | 0.986 | > 6.6
HDLM-2 (Hodgkin lymphoma, suspension) | 0.984 | > 20 | 0.868 | 7.09 | 0.834 | 6.52 | 0.979 | > 6.6
HDQ-P1 (breast, adherent) | 0.858 | > 20 | 0.885 | > 8 | 0.915 | > 10.2 | 0.983 | > 6.6
HEC-1 (endometrium, adherent) | 0.921 | > 20 | 0.855 | 6.03 | 0.931 | > 10.2 | 0.973 | > 6.6
